According to PubChem BioAssay AID1745853 (National Center for Advancing Translational Sciences (NCATS), 2022):
Some of the results follow. The main result of the screen is listed elsewhere. These columns were measured beside it and carry no call.

How the values were obtained:
Experiment in all cases: Primary Screen for Target Class Profiling of Small Molecule Inhibitors of Methyltransferases
[1] = target: Glycine N-methyltransferase (Homo sapiens) (UniProt Q14749); conditions: purified enzyme, MTase-Glo SAH luminescence; measured here: GNMT inhibition; at 40 µM; stronger effect = lower value
In short: (§1)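 Each enzyme was reacted with SAM and its substrate, with compounds tested once at 40 uM; SAH formed was read by MTase-Glo luminescence.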

[2] = target: Guanidinoacetate N-methyltransferase (Homo sapiens) (UniProt Q14353); conditions: purified enzyme, MTase-Glo SAH luminescence; measured here: GAMT inhibition; at 40 µM; stronger effect = lower value
In short: as §1

[3] = target: Histamine N-methyltransferase (Homo sapiens) (UniProt P50135); conditions: purified enzyme, MTase-Glo SAH luminescence; measured here: HNMT inhibition; at 40 µM; stronger effect = lower value
In short: as §1

[4] = target: Nicotinamide N-methyltransferase (Homo sapiens) (UniProt P40261); conditions: purified enzyme, MTase-Glo SAH luminescence; measured here: NNMT inhibition; at 40 µM; stronger effect = lower value
In short: as §1

[5] = target: Phenylethanolamine N-methyltransferase (Homo sapiens) (UniProt P11086); conditions: purified enzyme, MTase-Glo SAH luminescence; measured here: PNMT inhibition; at 40 µM; stronger effect = lower value
In short: as §1
% is set by controls: 0 for no effect and ±100 for the full control effect.

| Structure (SMILES) | activity change, negative = inhibition [1] [%] | activity change, negative = inhibition [2] [%] | activity change, negative = inhibition [3] [%] | activity change, negative = inhibition [4] [%] | activity change, negative = inhibition [5] [%] |
| --- | --- | --- | --- | --- | --- |
| COc1cccc(Cn2nc3n(CC(C)C)c(=O)c4ccc(C(=O)NCC(C)C)cc4n3c2=O)c1 | 1.51 | 0 | 2.59 | 2.68 | 3.57 |
| CC(C)=CCC/C(C)=C/CO[C@@H]1O[C@H](CO)[C@@H](O)[C@H](O)[C@H]1O | 1.4 | -1.61 | 4.49 | -11.8 | -7.86 |
| COc1cccc(N2C(=O)c3cc4sccc4n3CC2(C)C(=O)NC2CCCCCCC2)c1 (configuration not stated) | -5.5 | 2.16 | 0.243 | -2.46 | -4.88 |
| COc1ccc(CCCN2C(=O)O[C@@H]3CN(c4nc(C)cc(C)n4)C[C@@H]32)cc1 | -8.28 | -10.6 | -7.76 | -22.2 | -12.2 |
| CCc1ccc(C2c3cccn3-c3sc4c(c3CN2C(=O)Nc2cc(OC)ccc2OC)CCCC4)cc1 (configuration not stated) | -3.88 | 7.15 | 8.33 | 0.313 | -4.87 |
| CC(C)(C)n1cnc2cccnc21 | -1.43 | -3.74 | -0.831 | -1.55 | -2.59 |
| Cc1cc2c(cc3n2CC(C)(C(=O)NC2CCCCCCC2)N(Cc2ccccc2Cl)C3=O)o1 (configuration not stated) | -4.17 | -9.97 | 6.3 | -13.3 | -7.32 |
| CCCN1C(=O)c2c(C(=O)OC)ncn2CC1(C)C(=O)NCc1ccccc1 (configuration not stated) | 3.41 | 0 | 13.6 | 9.18 | 5.8 |
| COCCCNC(=O)CCc1nnc2n(Cc3ccccc3)c(=O)c3ccccc3n12 | 1.07 | 0 | 7.95 | 11 | 4.28 |
| Cc1ccc(N2C(=O)c3cc4occc4n3CC2(C)C(=O)NC2CCCCCC2)cc1 (configuration not stated) | -6.7 | 1.07 | -4.76 | 2.09 | -6.5 |
| CCCSCCCN1C(=O)c2cc3oc(C)cc3n2CC1(C)C(=O)NC1CCCCC1 (configuration not stated) | -1.29 | 4.61 | -4.79 | 0.755 | -3.68 |
| NC(=O)c1cccc2[nH]c(-c3ccc([C@H]4CCCN4)cc3F)nc12 | -9.02 | – | -76.4 | – | – |
| Fc1ccccc1CN1CCNc2cnc(OCc3cccnc3)cc2C1 | -15.7 | -11.2 | -27.8 | -19.1 | -23.1 |
| C=CC(C)(C)C12Nc3c(ccc4c3OC(C)(C)C=C4)C1(O)CC1C(=O)N3CCCC3C(=O)N12 (configuration not stated) | 4.39 | 4.99 | 3.02 | -7.94 | 2.91 |
| Cn1c(=O)c2ccc(C(=O)NC3CCCCC3)cc2n2c(=O)n(CC(=O)Nc3ccccc3Cl)nc12 | 0.598 | -0.699 | 1.5 | -5.3 | 1.81 |
| C=C[C@]1(C)C=C2CCC3C(C)(CCC[C@@]3(C)C(=O)O)C2CC1 (some centres not stated) | -1.6 | -1.91 | 6.9 | -17.7 | -1.84 |
| COCCOc1cnc2ccn([C@H](C)c3nnc4c(F)cc(-c5cnn(C)c5)cn34)c(=O)c2c1 | -3.58 | -4.54 | -1.85 | -15.8 | -7.41 |
| Cc1cc(-c2ncc(-c3cccnc3)cc2/C=C/c2ccccc2)cnc1-c1cccnc1 | 5.28 | 12.2 | -13.4 | -12.7 | 5.42 |
| CCc1cc(Nc2nccc(-c3c(-c4ccc(OC)c(C(=O)Nc5c(F)cccc5F)c4)nc4ccccn34)n2)c(OC)cc1N1CCC(N2CCN(S(C)(=O)=O)CC2)CC1 | -5.31 | -33.1 | -5.78 | -53.4 | -14.8 |
